The chains are these.
B1: chr6:144852070:144852171:+|3pUTR|ENSG00000152818|unk|FALSE|unique (ssRNA)
RNA: GGGAGUUCUACAGUCCGACGAUCAAGUCCUUAAUAGUUCUUGAAACUCCUAGUUGUUUUCUUGUUGAAAGCAGACACACAUUUAGUGCACGGCUUAUUUUACCUUUCGGGUGAAAGAUCAGAUGUUUUUAUACCCUUCACUUGCAACAGAGGAUUGAGCAUCA
B2: chr8:58583617:58583718:-|3pUTR|ENSG00000035681|unk|FALSE|unique (ssRNA)
RNA: GGGAGUUCUACAGUCCGACGAUCGUUUUGUCUUCCUAAUCUAUCACAAUUGCCACCCAUCGGGUUUUGGGUGUGUGUUUUCAUAGCGUGGUUACUUUCUAUAAUGCUGUACCCAGAUUCUAAGAACCUGGAGAAGGAUUAGCACAACAGAGGAUUGAGCAUCA
B3: chr7:83961326:83961382:-|CDS_3pUTR|ENSG00000075213|msi1_unk|total|mutant (ssRNA)
RNA: GGGAGUUCUACAGUCCGACGAUCAAACAGGAGGACCCACGAAUUUGAGAGGGCACCCAGGAGUGUCUGAGCUGCAUUACCUCCCGAAACCUCAAACAAGCCGAAACUUGCCCCGACAAUAACUGGAAAAACAAAUGCAAUAUACAACAGAGGAUUGAGCAUCA
B4: chr21:43982464:43982545:+|3pUTR|ENSG00000160216|msi1_unk|FALSE|overlapping (ssRNA)
RNA: GGGAGUUCUACAGUCCGACGAUCCCCUGACGGUGGUAUCCAGUUAACUCAAAACCAACACACAGAGUGCAGGAAAAGACAAUUAGAAACUAUUUUUCUUAUUAACUGGUGACUAAUAUUAACAAAACUUGAGCCAAGAGUAAACAACAGAGGAUUGAGCAUCA
B5: chr15:32969305:32969406:-|CDS|ENSG00000248905|unk|total|mutant (ssRNA)
RNA: GGGAGUUCUACAGUCCGACGAUCCGAGCAUGCAAUGAUAACAGCGAGACCCGAAGAAACCAUUGAAAAUCUGAAACACGAGCCCGAACACAGAUGGCGAGGGGGUUGUGAAGAGAGGAAAGAUGUGUGCAUUUCCACCGAUGACAACAGAGGAUUGAGCAUCA
B6: chr15:41900134:41900198:-|3pUTR|ENSG00000103966|msi1_unk|total|mutant (ssRNA)
RNA: GGGAGUUCUACAGUCCGACGAUCAGGGCACCUGGAGGCAGCAAAGAUUAUCUUAUUUAUUUUAUUUUGUUUUCUGCUAUAUUCCGAGUGGCAAAAAAACCGAGCAGAGGGUUUCUGCUGUCUCCAGACUGUCUACCAAAGAGACAACAGAGGAUUGAGCAUCA
B7: chr5:171410733:171410822:+|3pUTR|ENSG00000181163|msi1_unk|total|mutant (ssRNA)
RNA: GGGAGUUCUACAGUCCGACGAUCGUUUUUAAAGAUGGAACUCCACCCUUUGCUUGGUUUUAAGUAUGUAUGGAAUGUUAUGACCGGACACCGCCGCCGCGGUGGUCAGACAUGGAAAUGGUGGGGAGACAAAAAUAUACAUGUCAACAGAGGAUUGAGCAUCA
B8: chr8:123014585:123014686:-|3pUTR|ENSG00000136986|msi1|total|mutant (ssRNA)
RNA: GGGAGUUCUACAGUCCGACGAUCGCAGCUAACAUGGGUCCGGUUUAAACCAUGGGGGAUGCAACCCCUUUGCGUUUCAUAUGCCGGCCUACUGGCUUUGUGCCGCUGGAGCCGUUGGGUUGCUUUGUGUCCGGAGGAUCCAGACAACAGAGGAUUGAGCAUCA
B9: chr7:44573567:44573675:-|CDS|ENSG00000136271|unk|FALSE|unique (ssRNA)
RNA: GGGAGUUCUACAGUCCGACGAUCCGCACGGGCUCCGGGAAGACGGCCGCUUAUGCUAUUCCGAUGCUGCAGCUGUUGCUCCAUAGGAAGGCGGUGGGUAACGAGAGAGCUGAGGGGAGGAAGGAGGCAAGCUCCAAAAGCCUGCAACAGAGGAUUGAGCAUCA
B10: chr3:75729960:75730612:-|three_prime_utr|ENSG00000227124|control|control|control (ssRNA)
RNA: GGGAGUUCUACAGUCCGACGAUCACUUCUGGCCAUCAUAUUGUUCUUUUAUUUUUCCAAAUUUCACAUCACCAGUAACAAACUAGCUGUGAUCAUGGCAGAUAGCCUGGAAAUAAAACUCCCCUUUUUACCCUUUGCACAGCACAACAGAGGAUUGAGCAUCA
B11: chr1:155884367:155884468:+|3pUTR|ENSG00000132718|msi1|FALSE|unique (ssRNA)
RNA: GGGAGUUCUACAGUCCGACGAUCUGGGUCUACUGAGCAGUGGGUGCUGAGGUGACAGGGGAGGAACCAGUUGUUCUGUAGCCUAGGAACUGCCUCAGUGUCUUUGCCAGAAAAAGGCAAAGAGGCGGACAGUGCAGGGCUCCUCAACAGAGGAUUGAGCAUCA
B12: chr16:11872726:11872856:-|3pUTR|ENSG00000103342|msi1_unk|total|mutant (ssRNA)
RNA: GGGAGUUCUACAGUCCGACGAUCACAUAAUUGCCUACAAUAAUGAAAACCUACAGGAAUUUUUUUAUUUUUCAUUUUCCCCUCCGGCAUAUUCCGUAUUUUUCCCCCAGGCAGAUCAUUCUGAGUGUGCGAGUGUGUGUGCACCAACAGAGGAUUGAGCAUCA
B13: chr13:98915392:98915499:-|CDS|ENSG00000088387|unk|FALSE|unique (ssRNA)
RNA: GGGAGUUCUACAGUCCGACGAUCUCAUUUCAGAACAACAAAGUCAGGCGUUUUGCUUUUGAGCUCAAGAUGCAGGACAAAAGUAGUUAUCUCUUGGCAGCAGACAGUGAAGUGGAAAUGGAAGAAUGGAUCACAAUUCUAAAUCAACAGAGGAUUGAGCAUCA
B14: ENSG00000198589:be:win_3251|CDS|ENSG00000198589|bound_else_gene|NA|bound_elsewhere_windowed (ssRNA)
RNA: GGGAGUUCUACAGUCCGACGAUCCUCCUUCAGAAGAGGAUGCCUCAGAGAUGCCAGAAUUCUUGGAUAAAUCUAUAGUAGAGGAAGAGGAAGAUGAUGAUUAUGUGGAACUGAAAGUAGAAGGCAGUCCUACUGAGGAAGCUACAACAGAGGAUUGAGCAUCA
B15: chr11:119045269:119045370:-|3pUTR|ENSG00000149428|msi1|FALSE|unique (ssRNA)
RNA: GGGAGUUCUACAGUCCGACGAUCUGUGGUUAAAAAUGGAAACUGUUCUCCUCCCCAGCCCCACUCCCUGUUCCCUACCCAUAUAGGCCCUAAAUUUGGGAAAAAUCACUAUUAAUUUCUGAAUCCUUUGCCUGUGGGUAGGAACAACAGAGGAUUGAGCAUCA
B16: chr7:6691352:6691453:-|CDS|ENSG00000164631|unk|FALSE|bound_elsewhere (ssRNA)
RNA: GGGAGUUCUACAGUCCGACGAUCUACGAAUGUAAUGAAUGUGGAAAGUUAUUCUCCCAGUUGUCAUACCUCACUAUCCAUCAUAGAACUCAUUCAGGAGUAAAACCCUAUGAAUGUAGUGAAUGUGGGAAAACCUUCUACCAGCAACAGAGGAUUGAGCAUCA
B17: chr12:53253816:53253925:+|CDS|ENSG00000182544|unk|total|mutant (ssRNA)
RNA: GGGAGUUCUACAGUCCGACGAUCUCUCUUCAUGUUGACUUUCUCUACCAGCCCAGGCCAGGAGAGUCCGGUGGAGUCCUUCACCGCCUUUCUACUUAUUGAGUUGGCUUGUGGAUUAUACUUUCCCAGCAUGAGCUUCCUACGCAACAGAGGAUUGAGCAUCA
B18: chr12:24812577:24812678:-|3pUTR|ENSG00000060982|msi1|FALSE|unique (ssRNA)
RNA: GGGAGUUCUACAGUCCGACGAUCAUCCAAAGGAGCUUUUUCCUUAUUCUGUCAAGCAUUGAGAUCUUCUUCAGCUUUCAAUGUAGUUGCUAAAUACAAAUAAUGCUACUAGGUAGUGACUAAAUAUAGCAAACACUUCAUCAGCAACAGAGGAUUGAGCAUCA
B19: chr16:785952:786377:-|CDS|ENSG00000007376|control|control|control (ssRNA)
RNA: GGGAGUUCUACAGUCCGACGAUCCAGUCGCUGGACCAGCUCGUGCAGGCCUUACGGGCCACCCCCGACCCUGACCCCGAGGAUAGGGGCCCCAGGCCAGGCAGCCCCUCCGCACUCCUGCCUGGGCCCGGCCGGCCUCCUCCACAACAGAGGAUUGAGCAUCA
B20: chr9:37862824:37862925:+|3pUTR|ENSG00000122741|unk|FALSE|unique (ssRNA)
RNA: GGGAGUUCUACAGUCCGACGAUCUAUGCACUAGCCUUGCCCUCUUAGGUUGCAUUCUCUUUAGGCCACUGGUUCUCAAACAUUAGGGUGCACUGUAACCAUUACAGAGCUUGUGAAAAGUGCAGAAACCUGAGCCUCACCUUACAACAGAGGAUUGAGCAUCA
B21: chr10:92050442:92050545:-|3pUTR|ENSG00000107864|unk|FALSE|unique (ssRNA)
RNA: GGGAGUUCUACAGUCCGACGAUCAUGAAGGCCUGCUAGCACUAGCGUGGACAUUUUUCUAGCAUUCACCCUUGGGCUGCAGAUAGUAAUAUAUAAACACACACAAUGAUUGCAAGACUAUGUAAAUCUUUUUUUAAUCUUCUUCAACAGAGGAUUGAGCAUCA
B22: chr3:151442983:151443884:-|CDS|ENSG00000152580|control|control|control (ssRNA)
RNA: GGGAGUUCUACAGUCCGACGAUCUGGUUCGGAGCGAAGAGUAGUAAUGCUUACAAUGGAAGAGCGAGUGACCAGCCCCAGGAUAGAAGCUGCAUCCCAGAAAAGGACUGAAGUGAAUUUUGGGGACAAAUUACUACUGAACUGCAACAGAGGAUUGAGCAUCA

Some of the results follow.

For this assay, the target named is MSI1 full-length (mouse, UniProt Q61474 1-362). Nature of the assay: nsRBNS (natural sequence RNA bind-n-seq); RBNS binding buffer (assumed for nsRBNS): 25 mM Tris pH 7.5, 150 mM KCl, 3 mM MgCl2, 0.01% Triton X-100, 500 ug/ml BSA, 20 U/ml SUPERase-In, 4 C; UNK is unkempt and MSI1 is Musashi-1; names of the RNAs are library labels; protein concentration not given here; high values mean tight binding.
Chain of UniProt Q61474 (Q61474 whole entry): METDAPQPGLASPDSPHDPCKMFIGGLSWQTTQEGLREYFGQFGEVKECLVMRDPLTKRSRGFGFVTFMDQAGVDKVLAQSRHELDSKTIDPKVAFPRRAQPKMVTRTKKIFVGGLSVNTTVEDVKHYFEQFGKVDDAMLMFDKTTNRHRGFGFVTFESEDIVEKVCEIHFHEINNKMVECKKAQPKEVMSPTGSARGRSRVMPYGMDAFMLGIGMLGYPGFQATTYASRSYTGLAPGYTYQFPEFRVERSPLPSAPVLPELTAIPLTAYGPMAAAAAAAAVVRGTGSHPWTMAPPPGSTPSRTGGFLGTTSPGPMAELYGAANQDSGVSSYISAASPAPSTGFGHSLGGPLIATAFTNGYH
The molecule B1 came in with a binding signal of 1.29 enrichment R. In turn, B2 yielded a binding signal of 0.431 enrichment R. In turn, B3 gave a binding signal of 0.373 enrichment R.

As to B4, the binding signal was found to be 0.745 enrichment R.

Consider B5, for which the binding signal stood at 0.531 enrichment R. The molecule B6 displayed a binding signal of 0.793 enrichment R.

In turn, B7 came in with a binding signal of 0.643 enrichment R. On to B8, for which the binding signal stood at 0.252 enrichment R.

B9 displayed a binding signal of 0.454 enrichment R. In turn, B10 showed a binding signal of 0.497 enrichment R.

In the case of B11, the binding signal turned out to be 0.434 enrichment R. In turn, B12 registered a binding signal of 0.859 enrichment R. Then B13, with 0.455 enrichment R.

Regarding B14, the binding signal came to 1.5 enrichment R. Turning to B15, the binding signal is 0.353 enrichment R. For B16, the binding signal amounted to 0.207 enrichment R. Regarding B17, the binding signal is 0.395 enrichment R. On to B18, for which the binding signal worked out at 1.86 enrichment R. Then B19, with 0.196 enrichment R. As to B20, the binding signal is 0.459 enrichment R. B21 registered a binding signal of 2.45 enrichment R. B22 returned a binding signal of 0.498 enrichment R.

Values taken from publication PMC12136788.
